About 540 (0.36%) of roughly 150,000 compounds showed an effect of 50% or more. The list shows a part of the results.
Each compound was assayed on Plasmodium falciparum (assay: Primary screen in NF54 nanoGlo assay, in single point, at 2uM, 72h; a lower Z score goes with more inhibition). Conditions: timepoint 72 hour.
Assay type: functional, Erythrocyte
`Cn1ncn(CC(=O)N2CCN(c3cccc(C(F)(F)F)c3)CC2)c1=O` was tested, and the “% Inhibition” value was 8% and the Z score was -0.96.
For `CC(C)NC(=O)NCCNS(=O)(=O)N(C)C1CCCC1`, the “% Inhibition” value was -3% and the Z score was 0.42.
For `C[C@@H](C(=O)Nc1ccc2c(c1)OCCO2)n1nc(-c2ccccc2)c2cc(Cl)ccc21`, the “% Inhibition” value was -5% and the Z score was 0.86.
With `CCCN1CCn2cc(C(=O)NCc3cccc(OC)c3)nc2C1` the “% Inhibition” value was 0% and the Z score was -0.03.
`Cc1ccc2nc(-n3nc(C)c4c3NC(=O)C[C@@H]4c3c(C)sc4ccccc34)sc2c1` was tested, and the “% Inhibition” value was -3% and the Z score was 0.31.
In the case of `Cc1cc(C)cc(OCC(=O)N2CCN(C(=O)c3cc[nH]c3C)CC2)c1`, the “% Inhibition” value is reported as -5% and the Z score is reported as 0.68.
`CCN(CC)c1nc(-c2ccccc2)c2cc(Br)ccc2n1` was tested, and the “% Inhibition” value was -12% and the Z score was 2.04.
With `Cc1c(Cl)ccc2c(C(=O)NC3CCN(C)CC3)cc(-c3cccnc3)nc12` the “% Inhibition” value was 20% and the Z score was -2.75.
In the case of `COc1ccc2[nH]cc([C@H](CC(=O)NCc3ccccc3)c3cccc(C(F)(F)F)c3)c2c1`, the “% Inhibition” value is reported as 4% and the Z score is reported as -0.45.
With `CC(C)c1noc(CN[C@H](c2cccs2)C(C)C)n1` the “% Inhibition” value was -6% and the Z score was 0.69.
`CC(C)(C)c1nc(CN2CCC[C@H]2C(=O)O)cs1` was tested, and the “% Inhibition” value was -7% and the Z score was 0.99.
With `CN1CCN(S(=O)(=O)c2cnc3n2CCC3)c2ccc(Br)cc21` the “% Inhibition” value was -13% and the Z score was 1.16.
With `Cc1ccc(O)c(NC(=O)[C@]2(c3ccccc3)CCCO2)n1` the “% Inhibition” value was -8% and the Z score was 1.42.
For `CCOc1ccc(C(=O)Nc2cc(-c3noc(CC)n3)sc2C)cc1`, the “% Inhibition” value was 0% and the Z score was -0.03.
For `CCN(C(=O)c1cnc(-c2cccs2)nc1)[C@H]1CCS(=O)(=O)C1`, the “% Inhibition” value was -5% and the Z score was 0.82.
For `O=C(Cc1ccc2c(c1)OCO2)N1CCN(c2ccc3[nH]ncc3c2)C(=O)C1`, the “% Inhibition” value was -9% and the Z score was 1.13.
For `C[C@@H]1OCCO[C@@H]1C(=O)Nc1ccccc1-n1nccn1`, the “% Inhibition” value was -6% and the Z score was 1.1.
In the case of `CC1(C)CN(C(=O)Cc2cnn(-c3ccccc3)n2)CCO1`, the “% Inhibition” value is reported as -6% and the Z score is reported as 0.99.
For `NCc1cn(C2CCN(C(=O)[C@H]3CCc4ccccc4C3)CC2)nn1`, the “% Inhibition” value was -12% and the Z score was 1.13.
In the case of `O=C(Nc1cnc2c(c1)COCC2)c1ccc2ccccc2n1`, the “% Inhibition” value is reported as -4% and the Z score is reported as 0.48.
For `CCCCOc1c(Cl)cc(C(=O)N2CCC[C@@H](N)C2)cc1OCC`, the “% Inhibition” value was 0% and the Z score was 0.03.
In the case of `CCC(NC(=O)c1csc(C2CC2)n1)C1CN(Cc2ccccc2)CCO1` (stereo unspecified), the “% Inhibition” value is reported as 2% and the Z score is reported as -0.19.
With `CN(CC(=O)N[C@H]1CCCc2ccccc21)S(=O)(=O)c1c[nH]c(C(=O)N2CCCCCC2)c1` the “% Inhibition” value was -7% and the Z score was 0.69.
`O=C1N(CC2CCC2)CCC[C@@]12CCN(Cc1coc(-c3ccccc3)n1)C2` was tested, and the “% Inhibition” value was -20% and the Z score was 2.14.
With `CCCC(=O)N1CCC(Cn2ccc3cccnc32)CC1` the “% Inhibition” value was -14% and the Z score was 2.46.
`CC(C)n1ccc(C(=O)N[C@@H](C)c2ccccn2)n1` was tested, and the “% Inhibition” value was -9% and the Z score was 1.04.
For `Cc1ccc(-c2ncc(C(=O)NCCC(C)C)c(C)n2)cc1`, the “% Inhibition” value was 5% and the Z score was -0.53.
With `CNc1cc(N2CCCN(C(=O)CC3CCCC3)CC2)ncn1` the “% Inhibition” value was -8% and the Z score was 1.05.
With `Cc1cc(C(=O)N(C[C@H]2CCCO2)c2nc3c(Cl)cccc3s2)c(C)o1` the “% Inhibition” value was 5% and the Z score was -0.87.
With `CCOC[C@@H]1CC(F)(F)CN1C1CN(C(=O)c2ccn(CC)n2)C1` the “% Inhibition” value was -18% and the Z score was 2.1.
For `Cc1cccc(OC2CCN(C(=O)[C@H](O)c3ccccc3)CC2)c1`, the “% Inhibition” value was -2% and the Z score was 0.3.
In the case of `O=C(CN1C(=O)CCC1=O)N1CCN(c2cc3c(nn2)CCCC3)CC1`, the “% Inhibition” value is reported as -8% and the Z score is reported as 1.34.
For `Cc1nc(CNc2nc(-c3ccco3)nc3c2CCN(C)CC3)cs1`, the “% Inhibition” value was 6% and the Z score was -0.85.
In the case of `CCOc1ccccc1CNC(=O)c1cc(C)nc2c1c(=O)n(C)c(=O)n2C`, the “% Inhibition” value is reported as -3% and the Z score is reported as 0.46.
For `COc1cc(OC)c(Nc2c(C(=O)N3CCCC3)cnc3nc(C)ccc23)cc1Cl`, the “% Inhibition” value was -5% and the Z score was 0.72.
For `O=C(C(=O)N1CCCCC1)c1ccc(Br)cc1`, the “% Inhibition” value was 16% and the Z score was -2.22.
In the case of `O=C(NC1CC1)c1ccc(OC[C@H]2CCCN2C(=O)c2ccccc2F)cc1`, the “% Inhibition” value is reported as -14% and the Z score is reported as 2.57.
In the case of `CNc1nc(C)c(C(=O)N(C)Cc2ccncc2C)s1`, the “% Inhibition” value is reported as -2% and the Z score is reported as 0.32.
In the case of `Cc1nn(CCCNS(=O)(=O)c2cnn(C)c2C)c(C)c1Br`, the “% Inhibition” value is reported as 3% and the Z score is reported as -0.35.
With `O=C(Nc1cc(C(F)(F)F)ccc1O)c1c[nH]nc1C1CC1` the “% Inhibition” value was 3% and the Z score was -0.54.
For `O=C1CCN(CC(=O)N2CC=C(c3ccccc3F)C2)C(=O)N1`, the “% Inhibition” value was -8% and the Z score was 1.24.
For `CC(C)CN1CCN(CCCN2C(=O)NC(C)(C)C2=O)CC1`, the “% Inhibition” value was 29% and the Z score was -3.93.
With `O=C(COC1CCCCC1)Nc1ccccc1C(=O)NC1CC1` the “% Inhibition” value was -8% and the Z score was 1.49.
With `COCCCCC(=O)N(Cc1ccccc1)c1ccc(C#N)cn1` the “% Inhibition” value was -5% and the Z score was 0.77.
With `CC(C)NC(=O)c1nsc(C(=O)NC2CC2)c1N` the “% Inhibition” value was -12% and the Z score was 1.19.
With `O=C(CCCn1ccnc1)N[C@H]1COCC[C@@H]1Oc1ccc(CO)cc1` the “% Inhibition” value was -4% and the Z score was 0.8.
For `Cc1cc(N2CC(n3nc(C)cc3C)C2)n2ncnc2n1`, the “% Inhibition” value was 6% and the Z score was -0.82.
`C[C@H]1CCCN(C(=O)CN2CCN(c3ccc(F)c(F)c3)C2=O)C1` was tested, and the “% Inhibition” value was 2% and the Z score was -0.25.
In the case of `Cc1cc(C)c(N2CC[C@H](N3CCC4(C3)OCCO4)C2=O)c(C)c1`, the “% Inhibition” value is reported as -10% and the Z score is reported as 1.5.
For `CC(C)(CN1C[C@H](C(=O)O)[C@@H](c2ccncc2)C1)N1CCCCC1`, the “% Inhibition” value was -6% and the Z score was 0.98.
For `CC(=O)N1N=C(COc2ccc(Cl)cc2Cl)O[C@@]1(C)c1ccccc1`, the “% Inhibition” value was -12% and the Z score was 1.55.
`O=C(Cn1ncccc1=O)NCc1nc(-c2ccc[nH]c2=O)no1` was tested, and the “% Inhibition” value was -9% and the Z score was 1.46.
`Cc1cc(NC(=O)N2CCO[C@H]3CN(C(=O)OC(C)(C)C)C[C@H]32)no1` was tested, and the “% Inhibition” value was 6% and the Z score was -0.91.
In the case of `N#Cc1ccccc1OCCN1CC(n2cccn2)C1`, the “% Inhibition” value is reported as -7% and the Z score is reported as 0.93.
With `O=C(c1ccns1)N(Cc1ccccc1)CC1(O)CCCC1` the “% Inhibition” value was 0% and the Z score was 0.07.
`O=C(c1ccc(F)cc1)N1CCC(n2cc(-c3nc(C4CC4)no3)nn2)CC1` was tested, and the “% Inhibition” value was -20% and the Z score was 2.31.
For `CCc1nc(COC(=O)[C@@H]2CCCN2C(=O)OC)cs1`, the “% Inhibition” value was 13% and the Z score was -1.18.
`Cc1cc(C(=O)N2CCn3nc(CCC(=O)N4CCCC4)cc3C2)[nH]n1` was tested, and the “% Inhibition” value was -4% and the Z score was 0.62.
In the case of `CC(C)CNC(=O)c1coc(COc2ccc3ncccc3c2)n1`, the “% Inhibition” value is reported as -8% and the Z score is reported as 1.11.
In the case of `C[C@@H](CNc1nc(C2CC2)no1)Cn1cccn1`, the “% Inhibition” value is reported as -9% and the Z score is reported as 0.81.
With `COc1ccc2c(Cl)c(C(=O)Nc3nc(-c4ccccc4)cs3)sc2c1Cl` the “% Inhibition” value was 7% and the Z score was -0.72.
With `CO[C@H]1C[C@@H](CO)N(C(=O)c2onc3c2CCCC3)C1` the “% Inhibition” value was -12% and the Z score was 2.37.
With `COc1ccc(CCc2nc(-c3ccc4c(c3)[nH]c(=O)n4C(C)C)no2)cc1` the “% Inhibition” value was -8% and the Z score was 1.09.
For `O=C1NCCN(C(=O)CCN2CCCC2=O)[C@H]1Cc1ccccc1`, the “% Inhibition” value was -8% and the Z score was 1.74.
With `CCc1nn(C)c(NC(=O)[C@H]2CCN(CCOC)C2)c1C` the “% Inhibition” value was 4% and the Z score was -0.69.
`COc1ccccc1NC(=O)C(=O)N1CCC[C@H](c2nc(C)no2)C1` was tested, and the “% Inhibition” value was -2% and the Z score was 0.21.
`CCN1C(=O)[C@@H]2CC3(CCN(C(=O)Nc4ccc(C)c(C)c4)CC3)CN2C1=O` was tested, and the “% Inhibition” value was 7% and the Z score was -0.92.
`CCCCn1nc(-c2ccc(C(N)=O)cc2)nc1CN1CCOC1=O` was tested, and the “% Inhibition” value was -13% and the Z score was 2.21.
In the case of `Cc1c(C(=O)N2CC[C@H](n3cc(Cl)cn3)C2)nnn1Cc1ccc(F)cc1`, the “% Inhibition” value is reported as -9% and the Z score is reported as 1.45.
`O=C(Cc1noc(C2(c3cccc(F)c3)CC2)n1)NC1CCCC1` was tested, and the “% Inhibition” value was -11% and the Z score was 1.25.
For `Cc1ccc2cc(S(=O)(=O)N3CCOCC3)ccc2c1`, the “% Inhibition” value was -5% and the Z score was 0.63.
With `CN(C)CCNc1nc(S(=O)(=O)c2ccccc2)c(Cl)s1` the “% Inhibition” value was 3% and the Z score was -0.41.
With `O=C(NCc1ccc(Cn2cccn2)cc1)c1nccnc1-c1nc2ccccc2s1` the “% Inhibition” value was 2% and the Z score was -0.3.
`c1cc(CNc2ccc3c(c2)OCO3)ccn1` was tested, and the “% Inhibition” value was -9% and the Z score was 1.7.
`CCn1cnnc1CNC(=O)N1CC(C)OCC1C` (stereo unspecified) was tested, and the “% Inhibition” value was -4% and the Z score was 0.44.
`CCC(=O)N1C[C@@H]2NC(=O)CN(C)C(=O)c3ccc(C)c(c3)Oc3cccc(c3)CO[C@H]2C1` was tested, and the “% Inhibition” value was -3% and the Z score was 0.37.
`O=C(Cn1ccnc1)N1CCN(C(=O)N2CCN(Cc3ccccc3)CC2)CC1` was tested, and the “% Inhibition” value was -14% and the Z score was 2.78.
For `COc1cc(OC)c(OC)cc1CN1CCC2(CCC(=O)N(C)CC2)CC1`, the “% Inhibition” value was -1% and the Z score was 0.09.
For `COCCOc1ccc(Br)cc1S(=O)(=O)Nc1nccn(C)c1=O`, the “% Inhibition” value was -9% and the Z score was 1.35.
For `COc1c(F)cc(-c2cc(-c3sc(N)nc3C)nc(N)c2C#N)cc1F`, the “% Inhibition” value was -5% and the Z score was 0.89.
For `CC(C)(Cc1nc([C@H]2CCS(=O)(=O)C2)no1)C(F)(F)F`, the “% Inhibition” value was -6% and the Z score was 0.83.
With `CC(C)C[C@H](CO)NC(=O)C[C@@H]1c2nc(-c3cccnc3)sc2C[C@@H]2[C@](C)(CO)[C@H](O)CC[C@]21C` the “% Inhibition” value was 6% and the Z score was -1.
For `COc1ccc(C2CC(Cn3cc(C(C)=O)c(=O)[nH]c3=O)ON2C)cc1` (stereo unspecified), the “% Inhibition” value was -5% and the Z score was 0.73.

Reference: ChEMBL document CHEMBL4888484, “Replenishing the malaria drug discovery pipeline: Screening and hit evaluation of the MMV Hit Generation Library 1 (HGL1) against asexual blood stage Plasmodium falciparum ,using a nano luciferase reporter read-out” (2022)
